Laboratory results reported in article PMC6331339.
Results are given in words; binding and its absence hold for the method and conditions named. In cells and extracts the contact can be indirect. Some results given as binding are weak or reduced against the parent protein; the word gives no strength.

Chains of the proteins cited; added tags and fusions are not shown.
UniProt Q09472: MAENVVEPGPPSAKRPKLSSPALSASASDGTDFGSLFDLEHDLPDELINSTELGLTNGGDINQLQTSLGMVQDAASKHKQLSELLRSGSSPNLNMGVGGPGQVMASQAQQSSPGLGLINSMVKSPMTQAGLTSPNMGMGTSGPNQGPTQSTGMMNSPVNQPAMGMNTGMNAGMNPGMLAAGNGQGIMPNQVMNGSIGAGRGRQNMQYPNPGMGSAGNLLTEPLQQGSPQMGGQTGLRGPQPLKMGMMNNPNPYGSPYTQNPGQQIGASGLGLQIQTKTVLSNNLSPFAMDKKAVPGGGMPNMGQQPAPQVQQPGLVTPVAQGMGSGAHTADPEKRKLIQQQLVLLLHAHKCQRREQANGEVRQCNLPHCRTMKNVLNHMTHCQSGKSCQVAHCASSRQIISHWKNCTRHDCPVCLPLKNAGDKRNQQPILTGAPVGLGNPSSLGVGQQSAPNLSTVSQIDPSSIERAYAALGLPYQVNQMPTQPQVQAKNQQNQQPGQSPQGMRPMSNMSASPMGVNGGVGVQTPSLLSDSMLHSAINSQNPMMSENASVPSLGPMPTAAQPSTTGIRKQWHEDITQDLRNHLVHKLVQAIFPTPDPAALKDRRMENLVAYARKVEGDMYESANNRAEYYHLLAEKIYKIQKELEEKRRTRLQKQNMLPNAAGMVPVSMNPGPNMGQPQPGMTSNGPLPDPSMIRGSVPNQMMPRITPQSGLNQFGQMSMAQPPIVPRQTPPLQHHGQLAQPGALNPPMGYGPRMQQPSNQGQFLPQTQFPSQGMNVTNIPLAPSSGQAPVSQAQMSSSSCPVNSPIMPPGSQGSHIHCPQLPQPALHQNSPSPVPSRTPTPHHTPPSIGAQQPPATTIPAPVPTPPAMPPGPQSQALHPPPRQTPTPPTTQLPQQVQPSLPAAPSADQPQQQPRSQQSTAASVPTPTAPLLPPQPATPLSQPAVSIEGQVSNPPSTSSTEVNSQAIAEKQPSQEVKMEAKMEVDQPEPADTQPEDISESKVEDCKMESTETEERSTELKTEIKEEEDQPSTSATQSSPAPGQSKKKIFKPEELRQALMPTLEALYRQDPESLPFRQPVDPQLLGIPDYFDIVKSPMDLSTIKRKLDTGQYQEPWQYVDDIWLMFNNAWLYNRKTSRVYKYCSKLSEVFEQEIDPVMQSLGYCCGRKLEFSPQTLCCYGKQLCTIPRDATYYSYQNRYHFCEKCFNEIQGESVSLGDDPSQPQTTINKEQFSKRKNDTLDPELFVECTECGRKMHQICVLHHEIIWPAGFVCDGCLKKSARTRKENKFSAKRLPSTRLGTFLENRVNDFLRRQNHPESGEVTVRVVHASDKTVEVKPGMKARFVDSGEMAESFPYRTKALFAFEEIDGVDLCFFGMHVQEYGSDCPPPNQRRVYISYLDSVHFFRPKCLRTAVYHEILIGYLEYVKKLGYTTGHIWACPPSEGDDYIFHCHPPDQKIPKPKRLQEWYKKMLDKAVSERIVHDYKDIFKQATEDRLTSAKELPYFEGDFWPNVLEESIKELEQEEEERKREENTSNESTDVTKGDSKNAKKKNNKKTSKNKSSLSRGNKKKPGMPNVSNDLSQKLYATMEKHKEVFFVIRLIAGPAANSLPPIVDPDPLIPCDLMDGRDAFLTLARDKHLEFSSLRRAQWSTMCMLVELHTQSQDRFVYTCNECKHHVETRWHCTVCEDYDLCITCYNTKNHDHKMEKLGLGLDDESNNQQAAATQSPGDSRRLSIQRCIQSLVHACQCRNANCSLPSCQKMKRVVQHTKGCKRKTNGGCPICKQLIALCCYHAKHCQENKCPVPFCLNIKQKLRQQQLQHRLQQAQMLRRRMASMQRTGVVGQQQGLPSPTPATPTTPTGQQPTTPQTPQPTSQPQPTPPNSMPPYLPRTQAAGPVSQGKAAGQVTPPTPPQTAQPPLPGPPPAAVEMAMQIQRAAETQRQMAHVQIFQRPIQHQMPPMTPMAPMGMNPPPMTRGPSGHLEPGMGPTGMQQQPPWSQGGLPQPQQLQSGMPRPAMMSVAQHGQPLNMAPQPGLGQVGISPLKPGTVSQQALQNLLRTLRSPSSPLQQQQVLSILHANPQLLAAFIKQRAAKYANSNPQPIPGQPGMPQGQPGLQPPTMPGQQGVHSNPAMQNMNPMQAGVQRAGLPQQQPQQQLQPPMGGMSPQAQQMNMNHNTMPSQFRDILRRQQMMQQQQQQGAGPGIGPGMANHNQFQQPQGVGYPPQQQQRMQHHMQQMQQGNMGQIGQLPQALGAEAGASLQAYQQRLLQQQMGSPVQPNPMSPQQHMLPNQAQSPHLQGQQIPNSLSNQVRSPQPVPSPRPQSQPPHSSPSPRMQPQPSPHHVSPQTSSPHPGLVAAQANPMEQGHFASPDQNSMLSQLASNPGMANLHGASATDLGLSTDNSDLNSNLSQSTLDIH
UniProt Q8TB45: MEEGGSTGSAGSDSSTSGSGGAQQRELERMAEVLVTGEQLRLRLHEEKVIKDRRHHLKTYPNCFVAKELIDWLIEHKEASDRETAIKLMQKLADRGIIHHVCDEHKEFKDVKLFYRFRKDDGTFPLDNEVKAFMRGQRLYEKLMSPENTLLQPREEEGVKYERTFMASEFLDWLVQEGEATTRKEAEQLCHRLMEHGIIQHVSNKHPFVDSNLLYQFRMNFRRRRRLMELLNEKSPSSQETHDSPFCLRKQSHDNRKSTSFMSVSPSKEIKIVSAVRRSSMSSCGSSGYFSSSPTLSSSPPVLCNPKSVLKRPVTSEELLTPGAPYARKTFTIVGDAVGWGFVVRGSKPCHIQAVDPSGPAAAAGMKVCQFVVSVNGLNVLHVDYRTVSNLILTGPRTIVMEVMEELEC
UniProt Q8N122: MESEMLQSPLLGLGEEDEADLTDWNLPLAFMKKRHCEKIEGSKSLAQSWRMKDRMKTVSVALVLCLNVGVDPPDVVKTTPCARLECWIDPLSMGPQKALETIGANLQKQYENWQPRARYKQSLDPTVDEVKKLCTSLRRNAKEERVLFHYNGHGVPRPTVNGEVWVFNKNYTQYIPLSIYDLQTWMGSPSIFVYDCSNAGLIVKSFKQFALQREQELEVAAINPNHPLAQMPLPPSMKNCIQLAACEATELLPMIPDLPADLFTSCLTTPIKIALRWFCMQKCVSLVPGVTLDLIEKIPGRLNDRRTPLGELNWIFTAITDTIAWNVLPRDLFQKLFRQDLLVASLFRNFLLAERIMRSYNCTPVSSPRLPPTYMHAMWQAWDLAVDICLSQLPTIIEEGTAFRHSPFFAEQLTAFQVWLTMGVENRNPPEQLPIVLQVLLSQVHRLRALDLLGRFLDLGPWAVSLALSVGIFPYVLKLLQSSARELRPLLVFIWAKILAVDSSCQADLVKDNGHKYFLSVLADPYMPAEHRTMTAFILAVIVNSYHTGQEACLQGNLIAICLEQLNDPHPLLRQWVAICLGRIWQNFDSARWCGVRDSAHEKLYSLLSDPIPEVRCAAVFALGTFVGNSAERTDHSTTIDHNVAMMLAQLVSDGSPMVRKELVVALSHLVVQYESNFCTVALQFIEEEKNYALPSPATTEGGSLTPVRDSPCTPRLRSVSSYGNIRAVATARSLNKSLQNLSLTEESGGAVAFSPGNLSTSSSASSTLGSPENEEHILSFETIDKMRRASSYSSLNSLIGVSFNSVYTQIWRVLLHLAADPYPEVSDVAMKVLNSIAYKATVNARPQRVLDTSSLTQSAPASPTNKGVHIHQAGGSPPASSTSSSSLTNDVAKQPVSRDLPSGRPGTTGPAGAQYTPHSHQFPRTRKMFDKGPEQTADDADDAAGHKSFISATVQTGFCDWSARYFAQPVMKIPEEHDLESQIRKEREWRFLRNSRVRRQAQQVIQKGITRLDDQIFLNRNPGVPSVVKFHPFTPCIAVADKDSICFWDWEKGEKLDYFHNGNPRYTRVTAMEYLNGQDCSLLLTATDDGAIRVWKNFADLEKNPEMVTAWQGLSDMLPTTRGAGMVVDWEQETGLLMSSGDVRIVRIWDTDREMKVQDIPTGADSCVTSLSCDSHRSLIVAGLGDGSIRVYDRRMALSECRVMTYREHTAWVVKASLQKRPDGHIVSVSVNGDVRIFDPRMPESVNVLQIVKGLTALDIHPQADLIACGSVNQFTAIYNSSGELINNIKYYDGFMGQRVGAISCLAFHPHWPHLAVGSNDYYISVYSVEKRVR

Assays:
[1] = target: EP300 acetyltransferase (human (endogenous in HeLa)) (UniProt Q09472); experiment: co-IP; IP with EP300 antibody from lysate of cells transfected with GFP- or YFP-tagged mTORC1 constructs; overnight at 4°C, Dynabeads-protein G; blot
[2] = target: YFP-DEP domain-containing mTOR-interacting protein (DEPTOR) (UniProt Q8TB45); experiment: co-IP; GFP-Trap beads hold the GFP- or YFP-tagged protein from lysate of transfected cells; 10 mM Tris-HCl pH 7.4, 150 mM NaCl, 0.5 mM EDTA, 0.3% CHAPS; 1 h at 4°C; partners found by blot
[3] = target: YFP-Raptor (regulatory-associated protein of mammalian target of rapamycin), wild type (human) (UniProt Q8N122); experiment: as above
[4] = target: YFP-proline-rich Akt substrate of 40 kDa (PRAS40) (UniProt Q96B36); experiment: as above

Row | binding [1] | binding [2] | binding [3] | binding [4] | Substance
1 | no binding | – | – | – | YFP-DEP domain-containing mTOR-interacting protein (DEPTOR) (from UniProt Q8TB45 1-409)
2 | – | no binding | binds | no binding | EP300 acetyltransferase (from UniProt Q09472 1-2414) (enzyme)
3 | binds | – | – | – | YFP-Raptor (regulatory-associated protein of mammalian target of rapamycin), wild type (from UniProt Q8N122 1-1335)
4 | no binding | – | – | – | YFP-proline-rich Akt substrate of 40 kDa (PRAS40) (from UniProt Q96B36 1-256)
